# Results reported in patent publication US11192863B2, “Antiviral compounds and methods” (Biotron Limited, priority 2003, dated 2021).
# Assays:
# Vpu ion channel = Vpu ion channel (Human immunodeficiency virus type 1 group M subtype B, UniProt P05919); conditions: for Results (Compounds Inhibiting the Vpu Ion Channel in Bilayers): drug 100 μM in CIS and TRANS chambers, Vpu N-terminal peptide (residues 1-32), number of experiments x category
# MHV E protein = MHV E protein (Murine coronavirus, UniProt P0C2R0); conditions: halo of growth score; E. coli expressing E protein at 37° C.
# HCV p7 protein = HCV p7 protein (Hepatitis C virus genotype 1a, UniProt P27958, L790F); conditions: halo of growth score; E. coli expressing p7 at 37° C.
SMILES,Results (Compounds Inhibiting the Vpu Ion Channel in Bilayers) (Vpu ion channel),blocking of Vpu channels (in words) (Vpu ion channel; bilayer experiments),MHV E protein Inhibition (score) (MHV E protein),HCV p7 protein Inhibition (score/# of times tested) (HCV p7 protein)
"COc1nc(N2CCCCCC2)c(Cl)nc1C(=O)N=C(N)N [3-methoxy-HMA, 3-methoxy-5-(N,N-Hexamethylene)-amiloride]",3x partial block,–,–,–
"N/C(=N\C(=O)c1nc(Cl)c(N)nc1N)NCc1ccccc1 [Benzamil, N-Benzyl-N′-(3,5-diamino-6-chloro-pyrzine-2-carbonyl)-guanidine]",3x partial block; 7x no effect,much less effective,–,–
NC(N)=NC(=O)c1nc(Cl)c(-c2ccccc2)nc1N [N-amidino-3-amino-5-phenyl-6-chloro-2-pyrazinecarboxamide],3x partial block,–,–,–
N=C(N)NC(=O)/C=C/c1cc(Br)ccc1F [5-bromo-2-fluorocinnamoylguanidine],–,–,2.1 score,3.73/6 score
"N=C(N)NC(=O)/C=C/c1ccc2c(c1)OCO2 [3,4-(methylenedioxy)cinnamoylguanidine]",–,–,0.3 score,1.13/1 score
CC(C)c1ccc(/C=C/C(=O)NC(=N)N)cc1 [4-isopropylcinnamoylguanidine],–,–,4.5 score,2.51/2 score
"N=C(N)NC(=O)/C=C/c1ccc(Cl)c(Cl)c1 [3,4-dichlorocinnamoylguanidine]",–,–,3.8 score,2.59/3 score
N=C(N)NC(=O)/C=C/c1ccccc1-c1ccccc1 [2-phenylcinnamoylguanidine],–,–,3.4 score,1.00/1 score
N=C(N)NC(=O)/C=C/c1cccc(-c2ccccc2)c1 [3-phenylcinnamoylguanidine],–,–,3.7 score,1.0/1 score
Cc1ccc(/C=C/C(=O)NC(=N)N)cc1 [4-methylcinnamoylguanidine],–,–,0.4 score,2.32/2 score
CCOc1cccc(/C=C/C(=O)NC(=N)N)c1 [3-ethoxycinnamoylguanidine],–,–,0.3 score,1.63/1 score
"N=C(N)NC(=O)/C=C/C=C/c1cccc(Br)c1 [5-(3′-bromophenyl)penta-2,4-dienoylguanidine]",–,–,0.1 score,1.0/1 score
NC(N)=NC(=O)/C=C/c1ccc(Br)cc1 [(4-Bromocinnamoyl)guanidine],–,–,1.8 score,3.47/4 score
N=C(N)NC(=O)/C=C/c1ccccc1C1CCCCC1 [2-cyclohexylcinnamoylguanidine],–,–,0.9 score,2.26/2 score
"C/C(=C\c1ccccc1)C(=O)NC(=N)N [(a-Methylcinnamoyl)guanidine, (α-Methylcinnamoyl)guanidine]",–,–,1.0 score,1.14/1 score
N=C(N)NC(=O)/C=C/c1ccc2ccccc2c1 [3-(2-napthyl)acryloylguanidine],–,–,2.8 score,1.93/2 score
N=C(N)NC(=O)/C=C/c1cccc(C2=CCCCC2)c1 [3-(cyclohex-1-en-1-yl)cinnamoylguanidine],–,–,2.9 score,1.32/2 score
"N=C(N)NC(=O)/C=C/c1cccc(F)c1F [2,3-difluorocinnamoylguanidine]",–,–,3.8 score,1.24/1 score

SMILES,Results (Compounds Inhibiting the Vpu Ion Channel in Bilayers) (Vpu ion channel),blocking of Vpu channels (in words) (Vpu ion channel; bilayer experiments),MHV E protein Inhibition (score) (MHV E protein),HCV p7 protein Inhibition (score/# of times tested) (HCV p7 protein)
COc1cccc(/C=C/C(=O)NC(=N)N)c1 [(3-Methoxycinnamoyl)guanidine],–,–,0.8 score,1.0/1 score
N=C(N)NC(=O)/C=C/c1ccc(C(F)(F)F)cc1 [4-(trifluoromethyl)cinnamoylguanidine],–,–,2.8 score,3.33/5 score
"Cc1cc(C)c(/C=C/C(=O)NC(=N)N)c(C)c1 [2,4,6-trimethylcinnamoylguanidine]",–,–,1.2 score,3.75/1 score
COc1ccc(Br)cc1/C=C/C(=O)NC(=N)N [5-bromo-2-methoxycinnamoylguanidine],–,–,3.3 score,2.32/2 score
N=C(N)NC(=O)/C=C/c1cccc([N+](=O)[O-])c1 [(3-Nitrocinnamoyl)guanidine],–,–,0.1 score,1.71/1 score
N=C(N)NC(=O)/C=C/c1ccccc1F [2-fluorocinnamoylguanidine],–,–,0.8 score,1.0/1 score
CC(C)(C)c1ccccc1/C=C/C(=O)NC(=N)N [2-t-butylcinnamoylguanidine],–,–,3.8 score,2.36/2 score
N=C(N)NC(=O)/C=C/c1ccc(F)cc1 [4-fluorocinnamoylguanidine],–,–,0.2 score,1.86/1 score
N=C(N)NC(=O)C1CC1c1ccccc1 (stereo not drawn) [(trans-2-Phenylcyclopropanecarbonyl)guanidine],–,–,0.6 score,1.63/1 score
Cl.N=C(N)NC(=O)/C=C/c1ccccc1 [cinnamoylguanidine hydrochloride],–,–,1.1 score,1.32/2 score
CCc1ccccc1/C=C/C(=O)NC(=N)N [2-ethylcinnamoylguanidine],–,–,0.8 score,2.36/2 score
N=C(N)NCCCCCOCc1cccc(COCCCCCNC(=N)N)c1 [N-{5-[3-(5-Guanidino-pentyloxymethyl)-benzyloxy]-pentyl}-guanidine],3x strong block; 1x no effect,–,–,–
CCOc1ccccc1/C=C/C(=O)NC(=N)N [2-ethoxycinnamoylguanidine],–,–,0.7 score,1.00/1 score
CC(C)(C)c1ccc(/C=C/C(=O)NC(=N)N)cc1 [4-t-butylcinnamoylguanidine],–,–,4.1 score,2.42/2 score
N=C(N)NC(=O)/C=C/c1cccc(F)c1 [3-fluorocinnamoylguanidine],–,–,0.8 score,0.86/1 score
N=C(N)NC(=O)/C=C/c1ccccc1Br [(2-Bromocinnamoyl)guanidine],–,–,1.4 score,3.00/3 score
N=C(N)NC(=O)/C=C/c1ccccc1C(F)(F)F [2-(trifluoromethyl)cinnamoylguanidine],–,–,2.7 score,2.63/3 score
"Cc1ccc(C)c(/C=C/C(=O)NC(=N)N)c1 [2,5-dimethylcinnamoylguanidine]",–,–,2.3 score,3.43/4 score
